According to KR20140148294A (dated 2014):

What was measured:
[1] = biological target: IGF-1R 단백질 (Sino biological Inc. 10164H08H) (UniProt P08069 31-932); test: ELISA, coated IGF-1R (50 ng/well), anti-human Fc-HRP
[2] = biological target: T1, 재조합 IGF-1R (R&D systems, 391-GR) (human, UniProt P08069 31-932); test: SPR (BiaCore T200), antibody captured by anti-human IgG Fc on CM5, IGF-1R as analyte
T1 construct: range 1-932; Bought protein; also called 재조합 인슐린 유사 성장인자-1 수용체; 391-GR-050

EC50 [1]: 0.123 nM
Kd [2]: 0.352 nM
koff [2]: 2.91e-05 s⁻¹
kon [2]: 82800 M⁻¹ s⁻¹
B1: MKJP2-IL2 융합 단일클론항체 (항 IGF-1R_IL2) (other)
heavy: EVQLLESGGGLAQPGGSLRLSCAASGFTFSGYAMSWVRQAPGKGLEWVSAISSDGGSTYYADSVKGRFTISRDNSKNTLYLQMNSLRAEDTAVYYCARDPWFSRWTAFDYWGQGTLVTVSS[human IgG1 constant region not spelt out]GGGGSGGGGSGGGGS[about 150 residues not spelt out]
light: QSVLTQPPSASGTPGQRVTISCSGSSSNIGNNAVNWYQQLPGTAPKLLIYSNSKRPSGVPDRFSGSKSGTSASLAISGLRSEDEADYYCGTWDYSLSGYVFGGGTKLTVLGQPKAAPSVTLFPPSSEELQANKATLVCLISDFYPGAVTVAWKADSSPVKAGVETTTPSKQSNNKYAASSYLSLTPEQWKSHRSYSCQVTHEGSTVEKTVAPAECS
notes: also called MKJP-IL2
